{
  "source": "PubChem BioAssay AID624296",
  "about": "(National Center for Advancing Translational Sciences (NCATS), 2012)",
  "note": "Hit rate of the full screen: of about 350,000 compounds, about 9,900 (2.8%) were called active. This list was built around the results that the source calls inconclusive (neither active nor inactive); the mix of calls is not that of the screen. The call rests on the fitted dose curve; in most records, active means well fitted activation curve with a large enough effect; inconclusive means small, poorly fitted or top-dose-only effect; inactive means no such curve, though single readings can be large or run the other way. Potencies of inconclusive entries are left out as doubtful fits.",
  "data": [
    {"test": "A quantitative high throughput screen for small molecules that induce DNA re-replication in MCF 10a normal breast cells; further: nearly all actives have a fitted effect of over 50% in size; further: potency means the concentration at half of the fitted maximal effect; tags describe the fitted curve by direction and shape; on activity, positive = re-replication: % of control where 0% means no effect.", "conditions": "MCF 10A DNA re-replication, Hoechst nuclear intensity, 48 h; activity, positive = re-replication: at 46.1 µM (top of the series)", "values": [
      {"compound": "COc1ccc(/C=C2\\SC(=S)N(C(Cc3ccccc3)C(=O)O)C2=O)cc1", "note": "(configuration not stated)", "Potency": "inconclusive [activator, partial curve, poor fit]"},
      {"compound": "Clc1ccc(-n2nnc(-c3cccnc3Cl)n2)cc1Cl", "Potency": "inconclusive [activator, single point]"},
      {"compound": "COc1ccc(-n2cc3ccc([N+](=O)[O-])cc3n2)cc1", "Potency": "inconclusive [activator, partial curve, poor fit]"},
      {"compound": "CC(Oc1ccc(Cl)cc1)C(=O)NNC(=S)NC(=O)c1ccco1", "note": "(configuration not stated)", "Potency": "inconclusive [activator, partial curve]"},
      {"compound": "CN(C(=O)c1cccc(NC(=O)Cc2ccc(NC(=O)C3CCN(S(=O)(=O)c4cccc([N+](=O)[O-])c4)CC3)cc2)c1)C1CC1", "Potency": "inconclusive [activator, partial curve, poor fit]"},
      {"compound": "CS(=O)(=O)NCCSc1cc(C(F)(F)F)nc2ccccc12", "activity, positive = re-replication": "inactive: -8.41%"},
      {"compound": "Cc1cccc(-n2nc(C)c3c(C(=O)O)cc(-c4cccs4)nc32)c1", "Potency": "inconclusive [activator, single point]"},
      {"compound": "Cc1onc(-c2ccccc2)c1C(=O)N/N=C/c1cc2c(cc1Cl)OCO2", "Potency": "inconclusive [activator, partial curve, poor fit]"},
      {"compound": "CCOC(=O)C1(CCOc2ccccc2)CCN(Cc2ccc(F)c(OC)c2)CC1", "Potency": "inconclusive [activator, partial curve, poor fit]"},
      {"compound": "CCOC(=O)c1c(C)n(CC(O)c2ccccc2)c2ccc(O)cc12", "note": "(configuration not stated)", "Potency": "inconclusive [activator, partial curve, poor fit]"},
      {"compound": "CC(=O)Nc1ccc(S(=O)(=O)N(CCCN2CCOCC2)Cc2cccs2)cc1", "Potency": "active: 1.16 µM"},
      {"compound": "CC(=O)C1=C(C)NC(SCC(=O)c2ccccc2)=C(C#N)C1CC(C)C", "note": "(configuration not stated)", "Potency": "inconclusive [activator, single point]"},
      {"compound": "Cc1cc(NS(=O)(=O)c2ccc(NC(=O)Cc3ccccc3)cc2)nc(C)n1", "activity, positive = re-replication": "inactive: -13.3%"},
      {"compound": "Cc1ccccc1NC(=O)/C(C#N)=C\\c1cc(C)n(-c2ccc(C(=O)O)cc2)c1C", "activity, positive = re-replication": "inactive: 0.48%"},
      {"compound": "COc1ccc(C2Nc3ccccc3C(=O)N2NC(C)=O)cc1OC", "note": "(configuration not stated)", "Potency": "inconclusive [activator, single point]"},
      {"compound": "Cc1cc(C)c(C)c(OCCCn2ccnc2)c1", "activity, positive = re-replication": "inactive: -1%"},
      {"compound": "CCOc1cccc2sc(NC(=O)c3ccc(Br)s3)nc12", "Potency": "inconclusive [activator, partial curve]"},
      {"compound": "COc1cc2ccccc2c2c1CCCC2=O", "Potency": "inconclusive [activator, full curve]"},
      {"compound": "Fc1ccc(C[n+]2csc3ccccc32)cc1", "Potency": "inconclusive [activator, single point]"},
      {"compound": "Cc1cc(S(=O)(=O)NCC(C)C)ccc1OCC(=O)NCC1CCCO1", "note": "(configuration not stated)", "activity, positive = re-replication": "inactive: 8.29%"},
      {"compound": "O=[N+]([O-])c1ccc(-c2ccc(S(=O)(=O)NCCN3CCCC3)cc2)cc1", "Potency": "inconclusive [activator, single point]"},
      {"compound": "COc1ccc(OC)c(Nc2nc(N)nc(CCl)n2)c1", "Potency": "active: 29.1 µM"},
      {"compound": "CNC(CC(C)C)C(=O)NC1C(=O)NC(CC(N)=O)C(=O)NC2C(=O)NC3C(=O)NC(C(=O)NC(C(=O)O)c4cc(O)cc(O)c4-c4cc3ccc4O)C(O)c3ccc(c(Cl)c3)Oc3cc2cc(c3OC2OC(CO)C(O)C(O)C2OC2CC(C)(N)C(O)C(C)O2)Oc2ccc(cc2Cl)C1O", "note": "(configuration not stated)", "Potency": "inconclusive [activator, full curve, poor fit]"},
      {"compound": "CCc1ccccc1Nc1nc2ccccc2[nH]1", "Potency": "inconclusive [activator, single point]"},
      {"compound": "COC(=O)CCSc1cc([N+](=O)[O-])cc2c1c(C1OCCO1)nn2-c1ccccc1", "Potency": "inconclusive [activator, single point]"},
      {"compound": "O=C(CN1CCN(S(=O)(=O)c2ccc(Br)cc2)CC1)N/N=C/c1ccc(Br)s1", "activity, positive = re-replication": "inactive: -6.7%"},
      {"compound": "O=C(Nc1ccc(Cl)c(Cl)c1)c1cccc(S(=O)(=O)NCc2cccnc2)c1", "Potency": "inconclusive [activator, single point]"},
      {"compound": "Cc1csc(NC(=O)c2ccc(Cn3nc(C)c(Br)c3C)o2)n1", "Potency": "inconclusive [activator, partial curve, poor fit]"},
      {"compound": "O=S(=O)(NCc1cccs1)c1ccccc1Cl", "activity, positive = re-replication": "inactive: 0.5%"},
      {"compound": "COc1ccc(C(=O)NNC(=O)C(=O)/C=C(\\O)c2ccc(C)cc2)cc1", "activity, positive = re-replication": "inactive: 1.45%"},
      {"compound": "COc1ccc(/C=C2/C(=O)N(c3ccccc3)N=C2C)cc1Br", "Potency": "inconclusive [activator, single point]"},
      {"compound": "CC(C)C(=O)Nc1cccc(NC(=S)NC(=O)c2ccc(Cl)cc2)c1", "Potency": "inconclusive [activator, single point]"},
      {"compound": "CSCCC(N=C1NS(=O)(=O)c2ccccc21)C(=O)NCCc1ccccc1", "note": "(configuration not stated)", "activity, positive = re-replication": "inactive: 0.552%"},
      {"compound": "CCCn1c(SCC(=O)N2CCN(CC)CC2)nc2c1c(=O)n(C)c(=O)n2C", "activity, positive = re-replication": "inactive: 24.3%"},
      {"compound": "CCOC(=O)C1=C(C)N(C[C@@H]2CC[C@@H](Cc3ccc(-c4ccccc4)cc3)O2)C(=O)NC1c1ccc(SCc2ccco2)c([N+](=O)[O-])c1", "note": "(some centres not stated)", "Potency": "inconclusive [activator, full curve, poor fit]"},
      {"compound": "O=c1cc(N2CCCCC2)c(-c2ccccc2)nn1Cc1ccccc1Cl", "Potency": "inconclusive [activator, single point]"},
      {"compound": "Cc1ccsc1CN(C)C(=O)c1ccc(Oc2ccccc2)cc1", "Potency": "inconclusive [activator, single point]"},
      {"compound": "c1ccc2c(C[C@@H]3CNCCN3CCC34CC5CC(CC(C5)C3)C4)cccc2c1", "activity, positive = re-replication": "inactive: -9.69%"},
      {"compound": "CCOC(=O)N1CCN(CC(O)COc2c(C)cccc2C)CC1", "note": "(configuration not stated)", "activity, positive = re-replication": "inactive: 0.938%"},
      {"compound": "Clc1ccc(-n2ncc3c(NCC4CCCO4)ncnc32)cc1", "note": "(configuration not stated)", "Potency": "inconclusive [activator, full curve, poor fit]"},
      {"compound": "Cc1ccc(-c2c3c(nc4sc(C(N)=O)c(N)c24)CCCC3)o1", "Potency": "inconclusive [activator, single point]"},
      {"compound": "COc1ccc(OC)c(N(CC(=O)Nc2cccnc2)S(=O)(=O)c2ccc(OC)c(OC)c2)c1", "activity, positive = re-replication": "inactive: -0.053%"},
      {"compound": "Cc1ccc2c(c1)COc1c3ccc(C(=O)N4CCCCC4)cc3nn1-2", "activity, positive = re-replication": "inactive: 4.16%"},
      {"compound": "NS(=O)(=O)c1ccc(NC(=S)NC2CCCCCC2)cc1", "activity, positive = re-replication": "inactive: -5.19%"},
      {"compound": "O=C(c1ccc2ccccc2n1)N1CCN(S(=O)(=O)c2ccc(Cl)cc2)CC1", "Potency": "inconclusive [activator, partial curve, poor fit]"},
      {"compound": "Cc1ccc(O)c(Nc2c3ccccc3nc3ccccc23)c1", "Potency": "inconclusive [activator, single point]"},
      {"compound": "COc1ccc(CCC(C)NC2C3CC4CC(C3)CC2C4)cc1", "note": "(configuration not stated)", "Potency": "inconclusive [activator, single point]"},
      {"compound": "COc1ccc(C(C)=O)cc1COc1ccc(-n2cnnn2)cc1", "activity, positive = re-replication": "inactive: 6.86%"},
      {"compound": "O=C(Nc1cccc(Cl)c1)N1CCCCCC1", "Potency": "inconclusive [activator, single point]"},
      {"compound": "CCOC(=O)C(=CN(CCc1ccccc1)CC(=O)OC)C(=O)OCC", "Potency": "inconclusive [activator, full curve, poor fit]"},
      {"compound": "COc1ccc(NC(=O)C2CC(=O)n3cnnc3S2)cc1", "note": "(configuration not stated)", "Potency": "inconclusive [activator, single point]"},
      {"compound": "O=C(/C=C/c1ccc(Cl)cc1Cl)N(Cc1ccc(Cl)cc1)C1CCS(=O)(=O)C1", "note": "(configuration not stated)", "Potency": "inconclusive [activator, single point]"},
      {"compound": "CCOC(=O)c1ccc(NC(=O)c2nc[nH]c2C(=O)N[C@H](C)c2ccccc2)cc1", "Potency": "inconclusive [activator, single point]"},
      {"compound": "Nc1ccccc1C(=O)NNC1=C(C(=O)C(F)(F)F)CCC1", "activity, positive = re-replication": "inactive: 7.73%"},
      {"compound": "COc1ccc(/C=N/NC(N)=S)cc1", "Potency": "inconclusive [activator, single point]"},
      {"compound": "O=C(NNC(=O)c1csc(N2CCOCC2)n1)c1cccnc1", "activity, positive = re-replication": "inactive: -3.12%"},
      {"compound": "Nc1c(C(=O)CSc2nc3ccccc3o2)c(=O)[nH]c(=O)n1C1CC1", "Potency": "inconclusive [activator, partial curve, poor fit]"},
      {"compound": "O=C(C1=C[C@H](c2ccccc2)C[C@H](OCc2ccc(CO)cc2)O1)N1CCN(Cc2ccccc2)CC1", "Potency": "inconclusive [activator, single point]"},
      {"compound": "Cn1c(SCC(=O)c2ccccc2F)nnc1C1CC1", "activity, positive = re-replication": "inactive: -2.11%"},
      {"compound": "CN1CCN(C(=O)CSc2ccc(C(F)(F)F)cc2[N+](=O)[O-])CC1", "Potency": "inconclusive [activator, single point]"},
      {"compound": "Cc1ccc(NC(=O)COC(=O)Cc2ccsc2)cc1S(=O)(=O)N1CCOCC1", "activity, positive = re-replication": "inactive: 5.09%"},
      {"compound": "NS(=O)(=O)c1ccc(CCNc2nc3c(-c4cccc(F)c4)nnn3c3ccccc23)cc1", "Potency": "inconclusive [activator, partial curve, poor fit]"},
      {"compound": "CN(C(=O)CN1CCN(c2ccccc2F)CC1)C1CCCc2ccccc21", "note": "(configuration not stated)", "Potency": "inconclusive [activator, single point]"},
      {"compound": "CC(=O)c1ccccc1NC(=O)COC(=O)c1cc2ccccc2[nH]1", "Potency": "inconclusive [activator, single point]"},
      {"compound": "CC(=O)NC1=NC(=O)/C(=C/c2cn(C(C)=O)nc2-c2ccccc2)S1", "Potency": "inconclusive [activator, partial curve, poor fit]"},
      {"compound": "CC(C)c1ccccc1NC(=S)N(C)C", "Potency": "inconclusive [activator, single point]"},
      {"compound": "CCCCOc1ccc(C(=O)N=c2sccn2C)cc1OC", "activity, positive = re-replication": "inactive: -3.06%"}
    ]}
  ]
}
